# The campaign covered roughly 310,000 compounds. About 14,000 (4.5%) showed an effect of 50% or more. Effects have a minus sign here. The list shows a part of the results.
# Biological target: human ether-à-go-go-related gene (hERG) potassium channel (human, UniProt Q12809)
# Test: primary screen, population patch clamp on CHO cells stably expressing hERG
# 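Note: peak tail current of the secondary pulse compared with the same well before compound.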
# human ether-à-go-go-related gene (hERG) potassium channel, sequence (Q12809 whole entry, looked up): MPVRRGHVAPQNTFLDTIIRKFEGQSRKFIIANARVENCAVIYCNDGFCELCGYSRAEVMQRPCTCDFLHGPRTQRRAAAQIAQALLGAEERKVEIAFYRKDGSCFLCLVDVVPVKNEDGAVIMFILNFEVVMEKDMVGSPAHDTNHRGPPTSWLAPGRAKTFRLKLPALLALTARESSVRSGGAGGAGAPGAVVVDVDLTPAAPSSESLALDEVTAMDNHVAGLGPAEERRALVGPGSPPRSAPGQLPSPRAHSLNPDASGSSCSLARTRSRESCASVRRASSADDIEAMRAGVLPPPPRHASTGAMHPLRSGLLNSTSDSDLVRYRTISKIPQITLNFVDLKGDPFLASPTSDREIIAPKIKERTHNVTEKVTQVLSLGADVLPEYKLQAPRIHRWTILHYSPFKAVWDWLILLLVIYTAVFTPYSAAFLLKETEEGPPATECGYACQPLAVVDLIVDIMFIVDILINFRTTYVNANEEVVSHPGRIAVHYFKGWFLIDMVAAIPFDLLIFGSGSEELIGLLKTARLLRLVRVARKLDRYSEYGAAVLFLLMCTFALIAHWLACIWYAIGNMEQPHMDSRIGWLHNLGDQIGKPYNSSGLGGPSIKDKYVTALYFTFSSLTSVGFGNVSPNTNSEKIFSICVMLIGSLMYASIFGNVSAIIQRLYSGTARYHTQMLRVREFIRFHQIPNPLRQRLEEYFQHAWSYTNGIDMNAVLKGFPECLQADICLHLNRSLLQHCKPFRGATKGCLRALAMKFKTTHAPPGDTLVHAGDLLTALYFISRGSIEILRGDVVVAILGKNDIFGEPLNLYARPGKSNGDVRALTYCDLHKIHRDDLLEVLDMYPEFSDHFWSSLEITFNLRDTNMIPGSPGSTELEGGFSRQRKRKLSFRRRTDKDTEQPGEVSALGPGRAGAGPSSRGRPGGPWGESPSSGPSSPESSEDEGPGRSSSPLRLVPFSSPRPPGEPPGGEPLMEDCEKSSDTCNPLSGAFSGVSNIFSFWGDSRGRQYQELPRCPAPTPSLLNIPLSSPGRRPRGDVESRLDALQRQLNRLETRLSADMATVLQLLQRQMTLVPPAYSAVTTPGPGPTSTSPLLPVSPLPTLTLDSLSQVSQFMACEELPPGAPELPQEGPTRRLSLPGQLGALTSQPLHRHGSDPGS
row,SMILES,"hERG current change (%, negative = inhibition) at 10uM"
1,CCOC(=O)N1CCN(C(=O)c2ccc3c(c2)N(Cc2cc(C)ccc2C)C(=O)c2ccccc2S3=O)CC1 (stereo not shown),-4.78%
2,Cc1cc(C(=O)OCC(=O)NCc2ccc(Cl)cc2Cl)c(C)o1,9.75%
3,Cc1ccc(-c2noc(C3CCCN(C(=O)c4c(F)cccc4F)C3)n2)cc1 (stereo not shown),-27.4%
4,NC(=O)[C@H]1CC2(CC(c3cccc(NC(=O)COc4ccc(Cl)cc4)c3)=NO2)CN1C(=O)c1ccccc1C(=O)c1ccccc1 (stereo partly shown),0.343%
5,Cc1cc(C)nc(N/N=C/c2ccncc2)n1,25.4%
6,Cc1ccc(C2C(=O)N(C3CCCC3)CC(=O)N2CC2COc3ccccc3O2)cc1 (stereo not shown),-12%
7,O=C(Nc1sc2c(c1C(=O)NCc1ccco1)CCCC2)c1ccc2c(c1)OCO2,6.34%
8,CNc1nc(N2CCc3ccccc32)ncc1F,-1.71%
9,CCOC(=O)N1CCC(NS(=O)(=O)c2ccccc2)CC1,12.2%
10,Cc1onc(-c2ccccc2Cl)c1C(=O)Nc1nc2c(s1)CCCC2,10.4%
11,O=C(NCc1ccco1)c1cc2cc(Br)ccc2o1,1.76%
12,Cc1cccc(C)c1NC(=S)NNc1ncc(C(F)(F)F)cc1Cl,11.1%
13,COC(=O)c1ccccc1NC(=O)C1CC(=O)N(c2ccc(C)cc2)C1 (stereo not shown),-11.4%
14,Cc1ccccc1OCC(=O)NC(=S)Nc1ccc2c3c(cccc13)CC2,26.7%
15,Cc1cccc(NC(=O)c2ccc3c(=O)n4c(nc3c2)CCCCC4)n1,-67.2%
16,CCOC(=O)C1=C(CS(=O)(=O)c2ccc(F)cc2)NC(=O)NC1c1cc(OC)c(O)c(OC)c1 (stereo not shown),10.3%
17,COc1ccc(OC)c(NC(=O)c2nnn(Cc3ccccc3C)c2N)c1,-7.1%
18,Cc1ccc(-n2nc3c(c2NC(=O)c2ccc(OC(C)C)cc2)CS(=O)C3)cc1 (stereo not shown),-12.8%
19,CCc1cccc(C)c1NC(=S)N1CC2CC(C1)c1cccc(=O)n1C2 (stereo not shown),12.1%
20,C=CCC1(CC=C)CCCN1C(=O)c1cc(COc2cncc(Cl)c2)on1,-11.6%
21,O=C(COC(=O)CCc1ccc(S(=O)(=O)N2CCOCC2)cc1)Nc1ncc(C(F)(F)F)cc1Cl,-37.4%
22,O=C(Nc1ccc(Cl)cc1)c1ccco1,-6.25%

row,SMILES,"hERG current change (%, negative = inhibition) at 10uM"
1,Cc1[nH]c2ccccc2c1/C=N/NC(=O)CCC(=O)Nc1ccccc1,11.4%
2,O=C(NCc1ccco1)c1ccc2c(=O)n(Cc3ccco3)c(SCC(=O)N3CCCC3)nc2c1,-76.4%
3,COc1ccccc1CC(=O)Nc1ccc(-c2noc(COc3ccc(Cl)c(C)c3)n2)cc1,1.7%
4,Cn1c(O)c(/C=N/N2CCOCC2)c(=O)n(-c2ccccc2)c1=S,0.0549%
5,COCc1nnc(NS(=O)(=O)c2ccc(NC(C)=O)cc2)s1,11%
6,S=C(NCCc1ccccc1)NCC(c1ccco1)N1CCCCC1 (stereo not shown),-36.3%
7,CS/C(=N\S(=O)(=O)c1cccs1)Nc1ccc(Br)cc1F,-19.5%
8,CCOc1ccc(S(=O)(=O)NCC2CCCO2)c2ccccc12 (stereo not shown),-4.71%
9,COc1ccc(NC(=S)N2CCCC(CO)C2)c(OC)c1 (stereo not shown),-4.67%
10,COCCCNC(=S)NCCCNc1nc2cc(C)cc(C)c2cc1C#N,-14.2%
11,O=S(=O)(c1ccccc1)N1CCN(S(=O)(=O)N2CCCCCC2)CC1,10.6%
12,CC(C)CNC(=O)CC(=O)N/N=C/c1ccc(F)cc1,-9.66%
13,COc1ccc(-c2nnc(-c3ccccc3)o2)cc1OC,-35.8%
14,C=CCOc1ccc2ccccc2c1/C=N/O,-16%
15,CN1C(=O)CSc2ccc(NC(=O)N3CCN(c4ccccn4)CC3)cc21,-25.3%
16,COc1cccc(OC)c1C(=O)Nc1ccc2c3c(cccc13)CC2,0.914%
17,CCOc1ccc(OCC)c(NC(=O)CC2Oc3ccc(C)cc3NC2=O)c1 (stereo not shown),6.38%
18,Cc1c(C)n(C)c2ccc(C(=O)NCCCN3CCCC3)cc12,-23.8%
19,CCOC(=O)CSc1nc2cc(C(=O)N3CCCC3)ccc2c(=O)n1Cc1ccccc1,-34%
20,COCCNC(=O)CCn1c(=O)oc2ccccc21,9.49%
21,CCOC(=O)c1c(NC(=O)C2=C(C)NC(=S)NC2c2ccccc2C(F)(F)F)sc(C)c1C (stereo not shown),9.21%

# Reference: PMC4336329 (PLoS ONE, 2015)
